Data as given in PubChem BioAssay (NCI).
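How tested: cells in 96-well plates exposed to compound for 48 hours at five concentrations. GI50 is the concentration that inhibits growth by half. TGI: concentration producing complete growth inhibition.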

tested on: NCI-H322M lung; assay: NCI tumour cell line growth inhibition, 48 h

| SMILES | GI50 | TGI |
| --- | --- | --- |
| COC(=O)C[C@](O)(CCC(C)C)C(=O)O[C@@H]1C(OC)=C[C@]23CCCN2CCc2cc4c(cc2[C@H]13)OCO4 | 0.278 µM | 1.24 µM |
| Clc1cccc(-c2ccc(OCCCN3CCN(c4ccncc4)CC3)cc2)c1 | 2.13 µM | 5.89 µM |
| COc1cccc(NC(=O)c2ccc(NC(=O)CCl)s2)c1 | > 100 µM | > 100 µM |
| C/C(=N/O)c1ccc(NC(=O)CSc2nnc(-c3ccc4nc(-c5ccc(Cl)cc5)[nH]c4c3)o2)cc1 | 12.7 µM | 25.8 µM |
